{
  "source": "PubChem BioAssay AID651815",
  "about": "(National Center for Advancing Translational Sciences (NCATS), 2012)",
  "note": "The campaign covered roughly 2,100 compounds. About 1,100 (52%) were called active. So high a share suggests a set chosen from earlier hits. The shares of active, inactive and inconclusive entries below differ from those in the screen. The call rests on the fitted dose curve; in most records, active means well fitted inhibition curve with a large enough effect; inconclusive means small, poorly fitted or top-dose-only effect; inactive means no such curve, though single readings can be large or run the other way. No potency is given beside an inconclusive call; the fits are too rough. Potency means the concentration at half of the fitted maximal effect; tags describe the fitted curve by direction and shape.",
  "data": [
    {"target": "DNA dC->dU-editing enzyme APOBEC-3F (Homo sapiens) (UniProt Q8IUX4)", "sequence (Q8IUX4 whole entry, looked up)": "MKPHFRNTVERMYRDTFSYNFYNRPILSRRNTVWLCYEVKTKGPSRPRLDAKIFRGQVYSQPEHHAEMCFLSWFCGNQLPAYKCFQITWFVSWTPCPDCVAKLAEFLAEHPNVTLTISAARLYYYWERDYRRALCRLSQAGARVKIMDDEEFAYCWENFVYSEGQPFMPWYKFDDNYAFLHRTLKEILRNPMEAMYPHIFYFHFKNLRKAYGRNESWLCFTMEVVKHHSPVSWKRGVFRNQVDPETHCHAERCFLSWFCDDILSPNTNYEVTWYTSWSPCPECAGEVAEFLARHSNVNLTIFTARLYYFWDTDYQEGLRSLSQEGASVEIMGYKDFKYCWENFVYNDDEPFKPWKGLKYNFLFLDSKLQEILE", "assay": "qHTS for inhibitors of Vif-A3F interactions: Cherry picks counterscreen; further: nearly all actives have a fitted effect of over 65% in size", "details": "HeLa A3F-eYFP/Vif cells, eYFP fluorescence, 24 h; series mostly up to 46.1 µM", "in_short": "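Rescue of Vif-driven A3F-eYFP degradation read as cellular eYFP fluorescence after 24 h compound exposure (several concentrations) in stable HeLa cells; MG132 (2 mM stock) as positive control.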", "values": [
      {"molecule": "Cc1ccc(NC(=O)Cn2ncc(Cl)c(Cl)c2=O)cc1S(=O)(=O)N1CCCCC1", "Potency": "inconclusive [inhibitor, single point]"},
      {"molecule": "COc1ccc(N/C=C\\C(=O)c2ccc(Br)cc2)cc1OC", "Potency": "inconclusive [inhibitor, single point]"},
      {"molecule": "CCCCN1C(=O)c2cccc3cc(O)cc(c23)C1=O", "Potency": "inconclusive [inhibitor, single point]"},
      {"molecule": "C=CCN1C(=O)c2ccc(C(=O)N(CC(C)C)c3c(N)n(CCCC)c(=O)[nH]c3=O)cc2C1=O", "Potency": "inactive"},
      {"molecule": "Cc1ccsc1/C=N\\NC(=O)c1n[nH]c2c1CCC2", "Potency": "active: 3.96 µM"},
      {"molecule": "COc1cc(C(=O)N/N=C/c2ccccn2)cc(OC)c1OC", "Potency": "inconclusive [inhibitor, partial curve]"},
      {"molecule": "CN1C(=O)C(O)(C2COC(C)(C)CC2=O)c2cc(Br)ccc21", "note": "(stereo not given)", "Potency": "inactive"},
      {"molecule": "O=C(Nc1cc(Cl)cc2c1-c1ccc(Cl)cc1C2O)C(Cl)Cl", "note": "(stereo not given)", "Potency": "inconclusive [inhibitor, partial curve]"},
      {"molecule": "CN(C)c1ccc(Nc2nc3ccccc3n3nnnc23)cc1", "Potency": "inconclusive [inhibitor, single point]"},
      {"molecule": "O=C(NCc1cccnc1)c1ccc([N+](=O)[O-])o1", "Potency": "inconclusive [inhibitor, single point]"},
      {"molecule": "COc1cccc(C2CC(c3ccccc3)=NN2S(=O)(=O)c2ccc(C)cc2)c1OC", "note": "(stereo not given)", "Potency": "inconclusive [inhibitor, partial curve]"},
      {"molecule": "CC[n+]1c(/C=C/Nc2ccccc2)oc2ccc(OC)cc21", "Potency": "active: 16.4 µM"},
      {"molecule": "CC1CCCCC1NC(=O)/C(C#N)=C/C=C/c1ccccc1[N+](=O)[O-]", "note": "(stereo not given)", "Potency": "inconclusive [inhibitor, full curve, poor fit]"},
      {"molecule": "O=C(Nc1ncccn1)c1ccc([N+](=O)[O-])o1", "Potency": "inconclusive [inhibitor, single point]"},
      {"molecule": "O=C(NC(=S)N1CCc2ccccc21)c1ccco1", "Potency": "inactive"},
      {"molecule": "CC(=O)Nc1ccc(-c2ccnc3c2CC(C)(C(=O)NCc2ccco2)O3)cc1", "note": "(stereo not given)", "Potency": "inconclusive [inhibitor, full curve]"},
      {"molecule": "CCOc1ncccc1C(=O)OCc1ccc(C(=O)OC)cc1", "Potency": "inconclusive [inhibitor, single point]"},
      {"molecule": "CN(C)c1ccc(/C=C/c2ccnc3ccccc23)cc1N", "Potency": "inconclusive [inhibitor, single point]"},
      {"molecule": "Cc1ccc(NC(=O)CSc2ccccc2NC(=O)c2cccc(Cl)c2)cc1Cl", "Potency": "inconclusive [inhibitor, partial curve, poor fit]"},
      {"molecule": "N#Cc1sc2nc(-c3cccs3)cc(-c3ccc(Cl)cc3)c2c1N", "Potency": "active: 12.5 µM"},
      {"molecule": "O=C(Oc1ccc(Cl)c2cccnc12)c1ccco1", "Potency": "inactive"},
      {"molecule": "O=C1C(Cl)=C(NCCc2ccccc2)C(=O)c2ccccc21", "Potency": "inconclusive [inhibitor, single point]"},
      {"molecule": "CC(/C=N/NC(=O)c1cc(-c2ccc3ccccc3c2)n[nH]1)=C\\c1ccco1", "Potency": "inconclusive [inhibitor, single point]"},
      {"molecule": "O=C/C(=C\\Nc1ccccn1)c1nc2ccccc2o1", "Potency": "inconclusive [inhibitor, single point]"},
      {"molecule": "O=c1[nH]c(/C=C/c2cccc3ccccc23)nc2ccccc12", "Potency": "inconclusive [inhibitor, single point]"},
      {"molecule": "Cc1ccc(C)c(Cn2c(=O)n(CCCC(=O)NCc3ccco3)c(=O)c3sccc32)c1", "Potency": "inconclusive [inhibitor, partial curve]"},
      {"molecule": "CC(C)NC(=S)N/N=C/c1sc(N2CCCCC2)nc1-c1cccs1", "Potency": "inactive"},
      {"molecule": "CN1C2CCC1/C(=C\\c1ccccc1)C(=O)/C2=C\\c1ccccc1", "Potency": "active: 15.8 µM"},
      {"molecule": "COc1ccc(NC(=O)CSc2nc3c(oc4ccccc43)c(=O)n2Cc2ccco2)cc1Cl", "Potency": "active: 18.4 µM"},
      {"molecule": "COc1ccc2nccc(/C=C/c3ccc(N(C)C)cc3)c2c1", "Potency": "active: 23.1 µM"},
      {"molecule": "C[n+]1ccc(/C=C/c2cc[n+](C)c3ccccc23)c2ccccc21", "Potency": "inactive"},
      {"molecule": "Cc1ccc(C2C(C(=O)c3cccs3)=C(O)C(=O)N2c2nnc(C)s2)cc1", "note": "(stereo not given)", "Potency": "inconclusive [inhibitor, single point]"},
      {"molecule": "Nc1c(C(=O)O)sc2nc(-c3ccc(F)cc3)cc(-c3ccccc3)c12", "Potency": "inconclusive [inhibitor, single point]"},
      {"molecule": "COc1cc(/C=C(\\C#N)c2nc3ccccc3[nH]2)ccc1Oc1ccc([N+](=O)[O-])cn1", "Potency": "inconclusive [inhibitor, single point]"},
      {"molecule": "COc1cc2ccccc2cc1C(=O)N/N=C/c1cccnc1", "Potency": "inconclusive [inhibitor, partial curve, poor fit]"},
      {"molecule": "CC(C)COc1ccc(C(=O)N/C(=C/c2cccc([N+](=O)[O-])c2)C(=O)O)cc1", "Potency": "inactive"},
      {"molecule": "Cc1ccc2ccc3c(c2n1)NS(=O)(=O)c1ccc(C(F)(F)F)cc1-3", "Potency": "inconclusive [inhibitor, single point]"},
      {"molecule": "Oc1[nH]c2ccccc2c1N=Nc1c(F)c(F)c(F)c(F)c1F", "Potency": "inconclusive [inhibitor, single point]"},
      {"molecule": "CCCOc1ccc2cc(C(=O)NCc3ccccc3)c(=O)oc2c1", "Potency": "inactive"},
      {"molecule": "Cc1ccc(NC(=O)c2ccc(NCCCN3CCC(C)CC3)c([N+](=O)[O-])c2)cc1F", "Potency": "inconclusive [inhibitor, single point]"},
      {"molecule": "O=C(Nc1ccc(N2CCN(C(=O)c3ccccc3)CC2)cc1)c1ccc([N+](=O)[O-])o1", "Potency": "inconclusive [inhibitor, single point]"},
      {"molecule": "Cc1ccc(S(=O)(=O)N2CCN(C(=O)CSC(=S)N3CCCC3)CC2)c(C)c1", "Potency": "inactive"},
      {"molecule": "COc1ccc(/C=C2\\C(=O)NC(=S)N2C(=O)c2ccc(F)cc2)cc1", "Potency": "inconclusive [inhibitor, single point]"},
      {"molecule": "COc1ccc(N(C(=O)C(C)C)S(=O)(=O)c2cccs2)cc1", "Potency": "inconclusive [inhibitor, single point]"},
      {"molecule": "COc1ccc(C2=NOC(C(=O)NCc3ccc(F)cc3)C2)cc1", "note": "(stereo not given)", "Potency": "inconclusive [inhibitor, partial curve, poor fit]"},
      {"molecule": "CCCN1C=CC(=CC=C(C#N)C#N)C=C1", "Potency": "active: 17.7 µM"},
      {"molecule": "Cc1sc2nc(SCC(=O)N3CCOCC3)[nH]c(=O)c2c1-c1ccccc1", "Potency": "inactive"},
      {"molecule": "O=C(NC1CCCC(C(F)(F)F)C1)c1ccc([N+](=O)[O-])o1", "note": "(stereo not given)", "Potency": "inconclusive [inhibitor, single point]"},
      {"molecule": "FC(F)(F)c1ccccc1NC(=S)NN=C1CCCCCC1", "Potency": "inactive"},
      {"molecule": "COc1cc(C=C2C(=O)c3ccccc3C2=O)cc(OC)c1OC", "Potency": "inactive"},
      {"molecule": "O=C(NN(c1ccccc1)c1ccccc1)c1ccc([N+](=O)[O-])o1", "Potency": "inconclusive [inhibitor, single point]"},
      {"molecule": "O=C(NN=Cc1c(O)ccc2ccccc12)c1ccc2c(c1)OCO2", "Potency": "inconclusive [inhibitor, full curve]"},
      {"molecule": "C[n+]1cc(C(=O)N2CCCCC2)ccc1/C=C/c1c[nH]c2ccccc12", "Potency": "active: 11.2 µM"},
      {"molecule": "Cc1cc[n+](C2CCCCC2)cc1", "Potency": "inconclusive [inhibitor, single point]"},
      {"molecule": "CC(=O)Oc1cccc(N2C(=O)c3cccc4c([N+](=O)[O-])ccc(c34)C2=O)c1", "Potency": "inconclusive [inhibitor, partial curve]"},
      {"molecule": "O=C(Nc1ccccc1OC(=O)c1ccccc1)c1ccccc1", "Potency": "active: 15.8 µM"},
      {"molecule": "O=C(Cn1ncc(Cl)c(Cl)c1=O)N1CCN(S(=O)(=O)c2ccc3ccccc3c2)CC1", "Potency": "inconclusive [inhibitor, single point]"},
      {"molecule": "CCOC(=O)Cc1csc(NC(=O)c2sc3nc4c(C)cc(C)cc4cc3c2N)n1", "Potency": "active: 16.4 µM"},
      {"molecule": "CC(=O)Nc1ccc2nc(NC(=O)c3ccc([N+](=O)[O-])o3)sc2c1", "Potency": "inconclusive [inhibitor, single point]"},
      {"molecule": "O=[N+]([O-])c1ccc(N/N=C/C=C/c2ccco2)cc1", "Potency": "inconclusive [inhibitor, single point]"},
      {"molecule": "CCOC(=O)c1c(-c2ccc(OC)cc2)csc1/N=C/C1C(=O)CCCC1=O", "Potency": "inactive"},
      {"molecule": "CC(=O)c1cccc(-c2ccnc3c2CC(C(=O)Nc2cccc(NS(C)(=O)=O)c2)O3)c1", "note": "(stereo not given)", "Potency": "inconclusive [inhibitor, partial curve]"},
      {"molecule": "CCOc1ccc(C(=O)Nc2cc(-c3nc4ccccc4[nH]3)ccc2Cl)cc1[N+](=O)[O-]", "Potency": "inconclusive [inhibitor, single point]"},
      {"molecule": "Cc1cccc(Nc2nc(N)nc(-c3oc4ccccc4c3C)n2)c1", "Potency": "inconclusive [inhibitor, partial curve]"},
      {"molecule": "COc1ccc(COn2c(=O)c(C)[n+]([O-])c3ccccc32)cc1OC", "Potency": "inactive"},
      {"molecule": "O=C1c2ccccc2-c2nc3ccccc3cc21", "Potency": "inconclusive [inhibitor, partial curve, poor fit]"},
      {"molecule": "CN1C/C(=C\\c2ccc(N3CCOCC3)cc2)C(=O)/C(=C/c2ccc(N3CCOCC3)cc2)C1", "Potency": "inconclusive [inhibitor, single point]"},
      {"molecule": "Cc1cc(C)n(S(=O)(=O)/C=C/c2ccccc2)n1", "Potency": "inconclusive [inhibitor, single point]"},
      {"molecule": "N#CCSc1ccccc1NC(=O)CN1C(=O)NC(CCc2ccccc2)C1=O", "note": "(stereo not given)", "Potency": "inactive"},
      {"molecule": "CSc1nsc(/C=C/Nc2ccc(F)cc2)c1C#N", "Potency": "inconclusive [inhibitor, full curve, poor fit]"}
    ]}
  ]
}
